pKd: −log10 of the molar value.
What was measured:
NIH/3T3-Luc cells = assay: PDGF bioactivity luciferase reporter assay; type: cell-based; details: for luciferase expression vs rhPDGF-BB treatment only: affibody co-incubated with rhPDGF-BB, FIGS. 30C-30F
Method: NIH/3T3 fibroblast cells (ATCC) were thawed, seeded at 10,000 cell/cm^2, and expanded in growth medium consisting of DMEM containing 10% (v/v) fetal bovine serum (R&D Systems, Minneapolis, MN). Cultures were routinely maintained at 37° C. and 5% CO2 and passaged at 60-70% confluence. After three passages of expansion, NIH/3T3 cells were grown in Eagle's Minimal Essential Medium (EMEM, ATCC) for a single passage prior to transfection. Transfection mixtures were prepared according to the manufacturer's protocols. Briefly, 2500 ng of luciferase reporter plasmid pGL4.33 [luc2P/SRE/Hygro] (Promega), which contains a serum response element that regulates luciferase expression as a function of Rhoa GTPase activation and multiple mitogen activated phosphorylated kinase (MAPK) pathways, was combined with 12.5 μL of Lipofectamine Plus™ reagent and 227.5 μL of Opti-MEM buffer (Thermo Fisher Scientific, Waltham, MA) and mixed for 10 minutes at room temperature. Concurrently, Lipofectamine Plus™ mix was prepared by combining 14.3 μL of Lipofectamine Plus™ solution with 271.7 μL of Opti-MEM buffer solution for 10 minutes. Lipofectamine Plus™ mix was then combined with Plus Reagent DNA mix at a 1:1 ratio and incubated for an additional 15 minutes. During this step, NIH/3T3 cells were trypsinized and seeded into 96-well plates at 40,000 cells/cm^2 in 135 μl of EMEM. Cells were then transfected by adding 65 μL of Lipofectamine Plus Reagent DNA mix per well and incubated for 48 h at 37° C. and 5% CO2. Individual wells were combined to establish a polyclonal population of transfected cells. Cells were expanded and passaged 4 times between 60-70% confluency in growth medium containing 200 μg/mL hygromycin (selective medium) to remove the transiently transfected population, then continually passaged in selective medium to maintain the stably transfected NIH/3T3 cell population. Stably transfected NIH/3T3 cells, hereafter referred to as NIH/3T3-Luc, were expanded and stored in liquid nitrogen at post-transfection passage 5 until use.
NIH/3T3-Luc cells were seeded at 31,250 cells/cm^2 and incubated in 100 μL of growth medium overnight in 96 well plates. […] Luminescence was then measured using SpectraMax 13 plate reader (Molecular Devices, San Jose, CA).
PDGF bioactivity was assessed using NIH/3T3 cells transfected with a firefly luciferase gene reporter plasmid that links multiple ERK1/2 signaling pathways, including PDGFRβ signaling, to luciferase expression through a serum response element under the regulation of ERK1/2 (FIG. 30A). […] Firefly luciferase expression was assessed via the conversion of 5′-fluoroluciferin to oxyfluoroluciferin, which generates a stable luminescent output correlated to firefly luciferase concentration. […]

PDGF-BB = PDGF-BB (Homo sapiens, UniProt P01127); assay: Biolayer interferometry, affibody vs PDGF; type: binding; set-up: purchased PeproTech
Sequence of PDGF-BB (P01127 82-190 limits assumed): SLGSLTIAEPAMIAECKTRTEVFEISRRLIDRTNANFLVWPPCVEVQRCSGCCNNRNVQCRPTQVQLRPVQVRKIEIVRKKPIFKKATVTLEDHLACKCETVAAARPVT
Method: The binding interaction between PDGF and each soluble affibody was measured using a Gator® Plus biolayer interferometer (BLI; Gator Bio). Each soluble His-tagged affibody was diluted to 200 nM in PBS with 0.05% Tween20 (PBST; Thermo Fisher). Recombinant human PDGF-BB was buffer-exchanged into PBS and diluted to concentrations between 0-50 nM in PBST. Ni-NTA coated BLI probes (Gator Bio) were pre-soaked in 250 μL PBST for 45 minutes. The probes were then baselined with 200 μL PBST for 300 seconds and loaded with affibody for 180 seconds or until the wavelength shift plateaued. A new baseline was established using 200 μL PBST for 180 seconds, followed by 600 seconds of association with 200 μL of the various concentrations of rhPDGF-BB and dissociation for 600 seconds in 200 μL PBST.
(§1) Loaded probes were submerged in PBST until the baseline wavelength reading stabilized (approximately 300 seconds). 3.125-1000 nM of soluble VEGF-specific affibodies serially diluted in PBST were associated to the bVEGF-loaded probes for 600 seconds. Probes were then submerged into PBST or 600 seconds to measure dissociation of the affibodies. For measuring binding between PDGF and PDGF-specific affibodies, nitrilotriacetic acid (Ni-NTA) functionalized glass probes (GatorBio) were similarly pre-soaked in PBST, then loaded with 200 nM of PDGF-specific affibodies in PBST for 300 seconds until an approximate wavelength shift of 0.5 nm was achieved. Loaded probes were submerged in PBST until the baseline wavelength reading stabilized (approximately 300 seconds). 1.563-50 nM of soluble PDGF serially diluted in PBST were associated to the affibody-loaded probes for 600 seconds. Probes were then submerged into PBST for 600 seconds to measure dissociation of PDGF. Measurements were also taken of bVEGF loaded onto the streptavidin-functionalized probes without affibodies, affibodies loaded onto Ni-NTA probes without PDGF, and 0.0625-50 nM of PDGF without affibodies loaded onto Ni-NTA probes to subtract background signal from the data. Binding curves were normalized to data from probes loaded with only affibodies and only growth factors using GatorOne software 2.10 (GatorBio).
(§2) Biolayer interferometry (BLI) was also performed using streptavidin-functionalized glass probes to measure binding of affibodies to their off-target proteins.
(§3) Binding curves were fit to a global best-fit, non-linear regression model using GraphPad Prism 10.1.1 in which R^2>0.97 to determine the equilibrium dissociation constant (KD), on-rate constant (koff), and off-rate constant (kon) of each binding interaction.
Rosetta Rational Design Generates PDGF-specific Affibodies with Unique Binding Kinetics: Binding of PDGF to PDGF-specific affibodies was evaluated by loading nickel nitrilotriacetic acid (Ni-NTA)-coated BLI probes with 200 nM of each of the PDGF affibodies, followed by association of 1.563-50 nM of PDGF (FIG. 45G). […] Similar to the VEGF-specific affibody, the lower observed affinity between the original PDGF-specific affibody and PDGF on yeast surface display could be due to increased steric hindrance and decreased mobility of the PDGF-affibody binding interface compared to BLI.

VEGF = target: T1, VEGF (Homo sapiens, UniProt P15692); assay: Biolayer interferometry, soluble affibody vs bVEGF; type: binding; details: for pKd / koff / kon: BLI, binding to VEGF, global fit; for reduction in affinity for VEGF compared to the original VEGF affibody: BLI data
T1 construct: biotin (label as supplied by the vendor); purchased Acro Biosystems
T1 sequence (P15692 1-191 isoform P15692-4): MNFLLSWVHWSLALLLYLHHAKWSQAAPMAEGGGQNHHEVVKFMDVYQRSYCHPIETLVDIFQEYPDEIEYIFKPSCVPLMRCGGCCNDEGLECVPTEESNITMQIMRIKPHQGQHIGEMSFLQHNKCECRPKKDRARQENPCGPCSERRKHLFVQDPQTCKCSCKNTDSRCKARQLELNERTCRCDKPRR
Method: as §1, §2, §3
The weaker affinity observed on yeast surface display was likely due to increased steric hindrance and decreased mobility of the VEGF-affibody binding interface when the affibody was fixed within the yeast surface display construct compared to being freely accessible in solution during BLI.

HUVECs = assay: VEGF bioactivity HUVEC proliferation assay (CellTiter-Glo); type: cell-based, human; details: for inhibition of VEGF-induced HUVEC proliferation: 200 ng/ml VEGF pre-incubated with 1, 4, 20, 100, or 500 times molar excess of affibody; for HUVEC proliferation with affibody alone: 19,100 ng/mL affibody, no VEGF, 96 hours
[1] = Far-UV circular dichroism thermal and pH stability; type: physicochemical
Method: Affibody folding stabilities were determined by measuring their far-ultraviolet (UV) circular dichroism (CD) spectra. To assess affibody stability across a range of physiologically relevant pH, affibodies were buffer exchanged into 10 mM Tris at pH 6, 7, 7.4, or 8 and diluted to 0.3 mg/mL. Affibody absorption spectra were then assessed as described above after 4 hours of incubation in the different pH media at room temperature.
To determine affibody melting temperatures, samples were prepared in 10 mM Tris pH 7.4 at 0.3 mg/mL. […] Far-UV spectra were taken before heating at 20° C., at 95° C., and after heating at 20° C. Melting temperatures were determined by fitting the change in 220 nm signal over the temperature range to a Boltzmann sigmoidal curve.
To assess affibody thermal stabilities, affibodies were buffer-exchanged into Tris 10 mM pH 7.4 and diluted to 0.3 mg/mL. To avoid potential freeze/thaw degradation after thermal degradation screening, affibodies were aliquoted and then immediately stored at −80° C. Affibody aliquots were removed from −80° C. and placed at either room temperature, 37° C., or 42° C. for a total of 1, 4, or 7 days. Far-UV spectra were measured as described above for all replicates of each temperature condition and plotted to determine the change in fraction folded compared to a baseline sample.
Affibody folding stabilities were determined by measuring their far-ultraviolet (UV) circular dichroism (CD) spectra.
Within extracellular spaces, bicarbonate and phosphate species within interstitial fluid are the main buffering components regulating pH. Tissue damage caused by chronic disease or injury can result in interstitial fluid pH ranging from 5-8. As such, affibody folding stabilities under variable pH were determined by incubation in 10 mM Tris at pH 6.0, 7.0, 7.4, or 8.0. Affibody folding stabilities under prolonged exposure to temperature treatment conditions were determined by incubation at room temperature (25° C.), physiological temperature (37° C.), and elevated temperature (42° C.) over 7 days (1, 4, or 7 days).

FGF-2 = target: T2, FGF-2 (Homo sapiens, UniProt P09038); assay: Biolayer interferometry, soluble affibody vs bFGF-2; type: binding; details: 25 nM bFGF-2 on probe; 1000 nM affibody
T2 construct: biotin (label as supplied by the vendor); purchased Acro Biosystems
T2 sequence (P09038 134-288): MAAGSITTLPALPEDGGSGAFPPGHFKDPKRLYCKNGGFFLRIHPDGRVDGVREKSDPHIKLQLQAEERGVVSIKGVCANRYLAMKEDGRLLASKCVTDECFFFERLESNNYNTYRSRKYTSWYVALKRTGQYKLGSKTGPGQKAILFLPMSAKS
From the text: To further explore the affibody off-target binding observed on yeast surface display, biolayer interferometry (BLI) was used to measure off-target binding between soluble affibodies and proteins.

[2] = BLI, binding to PDGF, global fit

Row | Sequence | luciferase expression vs rhPDGF-BB treatment only (NIH/3T3-Luc cells) | koff (PDGF-BB; [2]) | kon (PDGF-BB; [2]) | pKd (PDGF-BB; Table 1, engineered PDGF affibodies, values match BLI) | luminescent signal vs PDGF alone (NIH/3T3-Luc cells; PDGF pre-incubated with 20× molar excess of affibody) | pKd (VEGF) | koff (VEGF) | kon (VEGF) | inhibition of VEGF-induced HUVEC proliferation (HUVECs) | HUVEC proliferation with affibody alone (HUVECs) | melting temperature (Tm) ([1]; CD at 220 nm, 20 to 95° C., 10 mM Tris pH 7.4) | folding after heating to 95° C. and cooling to 20° C. ([1]; far-UV CD spectra) | reduction in affinity for VEGF compared to the original VEGF affibody (VEGF) | binding to bFGF-2 on BLI (specificity) (FGF-2) | binding to bPDGF on BLI (specificity) (PDGF-BB; 25 nM bPDGF on probe, 1000 nM affibody)
1 | AEAKYAHELWEADWEITNLPNLSPDQLMAFYMALWDDPSQSSELLSEAKKLNDSQAPK [SEQ ID NO: 58] | decreased | 0.003107 s⁻¹ | 476,180 M^−1 s^−1 | 8.19 | – | – | – | – | – | – | – | – | – | – | –
2 | AEAKYAKELDDASVEIWDLPNLTPCQKVAFFVALYDDPSQSSELLSEAKKLNDSQAPK [SEQ ID NO: 60] | decreased | – | – | – | significant increase in luminescent signal | – | – | – | – | – | – | – | – | – | –
3 | AEAKYNKEWYDAVFVIGSLPNLTEDQKAAFSDALVDDPSQSSELLSEAKKLNDSQAPK [SEQ ID NO: 77] | – | – | – | – | – | 6.34 | 0.00418 s⁻¹ | 9190 M⁻¹ s⁻¹ | inhibited HUVEC proliferation at all doses except for 20× molar excess of affibody | did not induce HUVEC proliferation in the absence of VEGF | – | – | – | – | –
4 | AEAKYNKEWYDAVFVIGSLPNLTEDQKDAFSAALVDDPSQSSELLSEAKKLNDSQAPK [SEQ ID NO: 78] | – | – | – | – | – | 3.01 | 0.00769 s⁻¹ | 10.8 M⁻¹ s⁻¹ | only inhibited HUVEC proliferation at the highest affibody dose of 500× molar excess to VEGF | did not induce HUVEC proliferation in the absence of VEGF | 56.6 °C | reversible unfolding | 10,000 fold | negligible binding | negligible binding
5 | AEAKYNKEWYDAVFVIGSLPNLTEDQKDAFSDALVADPSQSSELLSEAKKLNDSQAPK [SEQ ID NO: 79] | – | – | – | – | – | 5.69 | 0.008368 s⁻¹ | 4080 M⁻¹ s⁻¹ | only inhibited HUVEC proliferation at the highest affibody dose of 500× molar excess to VEGF | did not induce HUVEC proliferation in the absence of VEGF | – | – | 20 fold | – | –
